The other results are listed elsewhere or left out. The main result of the screen is listed elsewhere. These columns were measured beside it and carry no call.
Key:
Experiment in all cases: Primary Screen for Target Class Profiling of Small Molecule Inhibitors of Methyltransferases
[1] = molecular target: Glycine N-methyltransferase (Homo sapiens) (UniProt Q14749); conditions: purified enzyme, MTase-Glo SAH luminescence; measured here: GNMT inhibition; at 40 µM; stronger effect = lower value
How it was run: (§1)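 Each enzyme was reacted with SAM and its substrate, with compounds tested once at 40 uM; SAH formed was read by MTase-Glo luminescence.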

[2] = molecular target: Guanidinoacetate N-methyltransferase (Homo sapiens) (UniProt Q14353); conditions: purified enzyme, MTase-Glo SAH luminescence; measured here: GAMT inhibition; at 40 µM; stronger effect = lower value
How it was run: as §1

[3] = molecular target: Histamine N-methyltransferase (Homo sapiens) (UniProt P50135); conditions: purified enzyme, MTase-Glo SAH luminescence; measured here: HNMT inhibition; at 40 µM; stronger effect = lower value
How it was run: as §1

[4] = molecular target: Nicotinamide N-methyltransferase (Homo sapiens) (UniProt P40261); conditions: purified enzyme, MTase-Glo SAH luminescence; measured here: NNMT inhibition; at 40 µM; stronger effect = lower value
How it was run: as §1

[5] = molecular target: Phenylethanolamine N-methyltransferase (Homo sapiens) (UniProt P11086); conditions: purified enzyme, MTase-Glo SAH luminescence; measured here: PNMT inhibition; at 40 µM; stronger effect = lower value
How it was run: as §1
On the % scale 0 is the no-effect control and ±100 the full control effect.

Structure (SMILES) | activity change, negative = inhibition [1] [%] | activity change, negative = inhibition [2] [%] | activity change, negative = inhibition [3] [%] | activity change, negative = inhibition [4] [%] | activity change, negative = inhibition [5] [%]
C[S+](=O)([O-])CCn1ncc2cc(OCc3cccc(-c4cccc(F)c4)c3)ccc21 | -5.32 | -3.23 | 0.406 | -9.34 | 6.33
Cc1ccc(Cn2c(=O)c3ccccc3n3c(=O)n(Cc4cccc(F)c4)nc23)cc1 | 2.22 | 3.81 | 8.11 | -2.82 | 2.92
COC(=O)N1CCCCC12Cc1ccccc1NC2=O (stereo not given) | -5.5 | -7.29 | -1.9 | -14.2 | -5.65
CCN1CC(c2ccccc2)CC2(CCN(C(=O)c3ccon3)CC2)C1 (stereo not given) | -1.3 | 3.52 | -5.76 | 0.528 | 11.8
Cc1cc(C(=O)N2CCCC(C(=O)Nc3cccc(-c4cc5ccccc5[nH]4)c3)C2)nn1C (stereo not given) | -7.48 | -4.3 | -4.84 | -14.7 | -16.3
CCCn1c(=O)c2ccc(C(=O)NC(C)CC)cc2n2c(=O)n(CC(=O)Nc3ccc(Cl)cc3)nc12 (stereo not given) | 0.856 | 8.25 | 5.04 | -0.948 | 1.97
Cn1ncc2c(C(=O)N3CCC(C#N)CC3)cc(-c3cc(Cl)cc(Cl)c3)nc21 | -7.17 | -5.19 | -7.2 | -12.8 | 8.83
CCOC(=O)c1cc2n(n1)CC(C)(C(=O)NC1CCC(C)CC1)N(c1ccc(C)c(F)c1)C2=O (stereo not given) | -5.48 | 2.38 | -3.42 | -4.27 | -8.96
CC1(C(=O)NC2CCCC2)Cn2c(ccc2-c2ccco2)C(=O)N1Cc1cccnc1 (stereo not given) | 3.05 | 1.29 | 8.7 | 9.31 | 2.16
O=C(C1CCCN(C2CCN(c3ncccn3)CC2)C1)N1CCOCC1 (stereo not given) | -0.176 | 0.074 | -0.626 | 2.88 | 16.1
CNC(=O)CC1CCOC2(CCN(S(=O)(=O)c3cc(OC)ccc3OC)CC2)C1 (stereo not given) | 5.69 | 1.53 | 16.4 | 6.55 | 11.3
CCOCCCN1C(=O)c2cc(-c3ccccc3)nn2CC1(C)C(=O)NCc1ccccc1 (stereo not given) | 0.981 | 1.41 | 1.27 | -2.35 | -1.74
CC(C)c1cc(C(=O)N2CC[C@H](NC(=O)C3CC3)C2)n[nH]1 | -4.97 | 4.24 | -4.49 | -19.3 | -12
Cc1cnc(CC2CCN(C(=O)Nc3ccc4c(c3)OCCO4)C2)n1C1CC1 (stereo not given) | -7.06 | -10.6 | -25.7 | -21 | -9.9

Reference: PubChem BioAssay AID1745853 (National Center for Advancing Translational Sciences (NCATS), 2022)
